Measured values taken from a collection of fitness landscapes (doi:10.1016/j.celrep.2020.107928).
In all, about 81,000 sequences were measured (“one-hybrid fitness for binding NBS DNA”: median about -0.1, highest 2% from about 0.36 on). This is one part of the list.

B1: Caulobacter ParB omega fusion; a variant is named by its letters at X, in order, B8GW30 (parent)
chain: MESVVVGEPGMSEGRRGLGRGLSALLGEVDAAPAQAPGEQLGGSREAPIEILQRNPDQPRRTFREEDLEDLSNSIREKGVLQPILVRPSPDTAGEYQIVAGERAWRAAQRAGLKTVPIMVRELDDLAVLEIGIIENVQRADLNVLEEALSYKVLMEKFERTQENIAQTIGKSXSHVANXMRLLXLPDEVQSYLVSGELTAXHARAIAAAADPVALAKQIIEGGLSVRETEALARKAPNLSAGKSKGGRPPRVKDTDTQALESDLSSVLGLDVSIDHRGSTGTLTITYATLEQLDDLCNRLTRGI

Variants of: B1
Assay: one-hybrid fitness for binding NBS DNA (the Noc-binding site; scaled: cognate 1, non-cognate 0); higher = stronger binding
Settings: with NBS DNA site
Procedure, shortened: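 Selection: bacterial one-hybrid in E. coli USO, HIS3 reporter with the site 19 bp from the promoter, 48 hours at 37°C on M9-minus-histidine plus 0.1 mM IPTG and 5 mM 3-AT. Libraries were Caulobacter ParB with four randomised specificity codons, sequenced on Illumina before and after selection. Fitness is the rescaled log change in variant-to-wild-type read ratio, anchored to the cognate and non-cognate sites.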

VVES and GKAT cannot be ordered by “one-hybrid fitness for binding NBS DNA” value: ≤ 0.2 for the first, ≤ 0.2 for the second.

ESTV and GNCY cannot be ordered by “one-hybrid fitness for binding NBS DNA” value: ≤ 0.2 for the first, ≤ 0.2 for the second.

NSGR and APIS cannot be ordered by “one-hybrid fitness for binding NBS DNA” value: ≤ 0.2 for the first, ≤ 0.2 for the second.

TIIG and SFKQ cannot be ordered by “one-hybrid fitness for binding NBS DNA” value: ≤ 0.2 for the first, ≤ 0.2 for the second.

CAQG and ESQT cannot be ordered by “one-hybrid fitness for binding NBS DNA” value: ≤ 0.2 for the first, ≤ 0.2 for the second.

SHSM and MKAT cannot be ordered by “one-hybrid fitness for binding NBS DNA” value: ≤ 0.2 for the first, ≤ 0.2 for the second.

MSTR and DPLS cannot be ordered by “one-hybrid fitness for binding NBS DNA” value: ≤ 0.2 for the first, ≤ 0.2 for the second.

NVQC and YGLR cannot be ordered by “one-hybrid fitness for binding NBS DNA” value: ≤ 0.2 for the first, ≤ 0.2 for the second.

LTQT and RMTV cannot be ordered by “one-hybrid fitness for binding NBS DNA” value: ≤ 0.2 for the first, ≤ 0.2 for the second.

KLDS and PAFN cannot be ordered by “one-hybrid fitness for binding NBS DNA” value: ≤ 0.2 for the first, ≤ 0.2 for the second.

NTTL and RTHF cannot be ordered by “one-hybrid fitness for binding NBS DNA” value: ≤ 0.2 for the first, ≤ 0.2 for the second.

QELS and MYNC cannot be ordered by “one-hybrid fitness for binding NBS DNA” value: ≤ 0.2 for the first, ≤ 0.2 for the second.

TFQT and QNNL cannot be ordered by “one-hybrid fitness for binding NBS DNA” value: ≤ 0.2 for the first, ≤ 0.2 for the second.

FYYT and PSVT cannot be ordered by “one-hybrid fitness for binding NBS DNA” value: ≤ 0.2 for the first, ≤ 0.2 for the second.

RSWK and QVVC cannot be ordered by “one-hybrid fitness for binding NBS DNA” value: ≤ 0.2 for the first, ≤ 0.2 for the second.

GAAW and SIPG cannot be ordered by “one-hybrid fitness for binding NBS DNA” value: ≤ 0.2 for the first, ≤ 0.2 for the second.

LNLA and IPAG cannot be ordered by “one-hybrid fitness for binding NBS DNA” value: ≤ 0.2 for the first, ≤ 0.2 for the second.

GLQS and WYLY cannot be ordered by “one-hybrid fitness for binding NBS DNA” value: ≤ 0.2 for the first, ≤ 0.2 for the second.

TGNI and TVVM cannot be ordered by “one-hybrid fitness for binding NBS DNA” value: ≤ 0.2 for the first, ≤ 0.2 for the second.

SPIH and ILQR cannot be ordered by “one-hybrid fitness for binding NBS DNA” value: ≤ 0.2 for the first, ≤ 0.2 for the second.

KLVK and SRRK cannot be ordered by “one-hybrid fitness for binding NBS DNA” value: ≤ 0.2 for the first, ≤ 0.2 for the second.

RLGM and HMGI cannot be ordered by “one-hybrid fitness for binding NBS DNA” value: ≤ 0.2 for the first, ≤ 0.2 for the second.

VIYC and PKQC cannot be ordered by “one-hybrid fitness for binding NBS DNA” value: ≤ 0.2 for the first, ≤ 0.2 for the second.

NLAG and LPSA cannot be ordered by “one-hybrid fitness for binding NBS DNA” value: ≤ 0.2 for the first, ≤ 0.2 for the second.

NVLA and GTLE cannot be ordered by “one-hybrid fitness for binding NBS DNA” value: ≤ 0.2 for the first, ≤ 0.2 for the second.

DRTQ and QMDD cannot be ordered by “one-hybrid fitness for binding NBS DNA” value: ≤ 0.2 for the first, ≤ 0.2 for the second.

SWEE and PWIM cannot be ordered by “one-hybrid fitness for binding NBS DNA” value: ≤ 0.2 for the first, ≤ 0.2 for the second.

YKPS and MACK cannot be ordered by “one-hybrid fitness for binding NBS DNA” value: ≤ 0.2 for the first, ≤ 0.2 for the second.

RLRV and VMVT cannot be ordered by “one-hybrid fitness for binding NBS DNA” value: ≤ 0.2 for the first, ≤ 0.2 for the second.

RFKK and WWNC cannot be ordered by “one-hybrid fitness for binding NBS DNA” value: ≤ 0.2 for the first, ≤ 0.2 for the second.

NPHC and YHPF cannot be ordered by “one-hybrid fitness for binding NBS DNA” value: ≤ 0.2 for the first, ≤ 0.2 for the second.

GTQK and GSNR cannot be ordered by “one-hybrid fitness for binding NBS DNA” value: ≤ 0.2 for the first, ≤ 0.2 for the second.

WHKV and DGQS cannot be ordered by “one-hybrid fitness for binding NBS DNA” value: ≤ 0.2 for the first, ≤ 0.2 for the second.

RWQT and RQES cannot be ordered by “one-hybrid fitness for binding NBS DNA” value: ≤ 0.2 for the first, ≤ 0.2 for the second.

LCIF and RYYA cannot be ordered by “one-hybrid fitness for binding NBS DNA” value: ≤ 0.2 for the first, ≤ 0.2 for the second.

KKGK and DPSR cannot be ordered by “one-hybrid fitness for binding NBS DNA” value: ≤ 0.2 for the first, ≤ 0.2 for the second.

LIKQ and TKAT cannot be ordered by “one-hybrid fitness for binding NBS DNA” value: ≤ 0.2 for the first, ≤ 0.2 for the second.

CCRT and WHNG cannot be ordered by “one-hybrid fitness for binding NBS DNA” value: ≤ 0.2 for the first, ≤ 0.2 for the second.

GQNC and PENT cannot be ordered by “one-hybrid fitness for binding NBS DNA” value: ≤ 0.2 for the first, ≤ 0.2 for the second.

HKRE and QCNE cannot be ordered by “one-hybrid fitness for binding NBS DNA” value: ≤ 0.2 for the first, ≤ 0.2 for the second.

RKPD and MTPF cannot be ordered by “one-hybrid fitness for binding NBS DNA” value: ≤ 0.2 for the first, ≤ 0.2 for the second.

MCRT and ARTD cannot be ordered by “one-hybrid fitness for binding NBS DNA” value: ≤ 0.2 for the first, ≤ 0.2 for the second.

QNLV and QWLG cannot be ordered by “one-hybrid fitness for binding NBS DNA” value: ≤ 0.2 for the first, ≤ 0.2 for the second.

TIAR and RTYY cannot be ordered by “one-hybrid fitness for binding NBS DNA” value: ≤ 0.2 for the first, ≤ 0.2 for the second.

RECG and MCGT cannot be ordered by “one-hybrid fitness for binding NBS DNA” value: ≤ 0.2 for the first, ≤ 0.2 for the second.

NSHE and WCTC cannot be ordered by “one-hybrid fitness for binding NBS DNA” value: ≤ 0.2 for the first, ≤ 0.2 for the second.

DAEC and SACC cannot be ordered by “one-hybrid fitness for binding NBS DNA” value: ≤ 0.2 for the first, ≤ 0.2 for the second.

NVIK and STKV cannot be ordered by “one-hybrid fitness for binding NBS DNA” value: ≤ 0.2 for the first, ≤ 0.2 for the second.

CCVT and KTAC cannot be ordered by “one-hybrid fitness for binding NBS DNA” value: ≤ 0.2 for the first, ≤ 0.2 for the second.

PHEA and RNPR cannot be ordered by “one-hybrid fitness for binding NBS DNA” value: ≤ 0.2 for the first, ≤ 0.2 for the second.

DNYL and HSSL cannot be ordered by “one-hybrid fitness for binding NBS DNA” value: ≤ 0.2 for the first, ≤ 0.2 for the second.

SMAE and WVDT cannot be ordered by “one-hybrid fitness for binding NBS DNA” value: ≤ 0.2 for the first, ≤ 0.2 for the second.

HDTF and NSNS cannot be ordered by “one-hybrid fitness for binding NBS DNA” value: ≤ 0.2 for the first, ≤ 0.2 for the second.

RACF and MRTA cannot be ordered by “one-hybrid fitness for binding NBS DNA” value: ≤ 0.2 for the first, ≤ 0.2 for the second.

EDAG and KVRC cannot be ordered by “one-hybrid fitness for binding NBS DNA” value: ≤ 0.2 for the first, ≤ 0.2 for the second.

EMQL and CQNL cannot be ordered by “one-hybrid fitness for binding NBS DNA” value: ≤ 0.2 for the first, ≤ 0.2 for the second.

MQYS and PAKH cannot be ordered by “one-hybrid fitness for binding NBS DNA” value: ≤ 0.2 for the first, ≤ 0.2 for the second.

RGCQ and RSWC cannot be ordered by “one-hybrid fitness for binding NBS DNA” value: ≤ 0.2 for the first, ≤ 0.2 for the second.

EGSL and SWNC cannot be ordered by “one-hybrid fitness for binding NBS DNA” value: ≤ 0.2 for the first, ≤ 0.2 for the second.

Compared with QMKQ, QKPM is lower in “one-hybrid fitness for binding NBS DNA” value: 0.417 for the first, ≤ 0.2 for the second.

MDDS and GQGY cannot be ordered by “one-hybrid fitness for binding NBS DNA” value: ≤ 0.2 for the first, ≤ 0.2 for the second.

ECIL and NNSS cannot be ordered by “one-hybrid fitness for binding NBS DNA” value: ≤ 0.2 for the first, ≤ 0.2 for the second.

IPAS and ANLF cannot be ordered by “one-hybrid fitness for binding NBS DNA” value: ≤ 0.2 for the first, ≤ 0.2 for the second.

SEMD and PPKR cannot be ordered by “one-hybrid fitness for binding NBS DNA” value: ≤ 0.2 for the first, ≤ 0.2 for the second.

LVNA and SNMY cannot be ordered by “one-hybrid fitness for binding NBS DNA” value: ≤ 0.2 for the first, ≤ 0.2 for the second.

DLVA and IQCC cannot be ordered by “one-hybrid fitness for binding NBS DNA” value: ≤ 0.2 for the first, ≤ 0.2 for the second.

HHAM and NQNL cannot be ordered by “one-hybrid fitness for binding NBS DNA” value: ≤ 0.2 for the first, ≤ 0.2 for the second.

ALCT and GTQF cannot be ordered by “one-hybrid fitness for binding NBS DNA” value: ≤ 0.2 for the first, ≤ 0.2 for the second.

QQLG and REVF cannot be ordered by “one-hybrid fitness for binding NBS DNA” value: ≤ 0.2 for the first, ≤ 0.2 for the second.

RTDL and NQPN cannot be ordered by “one-hybrid fitness for binding NBS DNA” value: ≤ 0.2 for the first, ≤ 0.2 for the second.

MEKA and LNWS cannot be ordered by “one-hybrid fitness for binding NBS DNA” value: ≤ 0.2 for the first, ≤ 0.2 for the second.

ASDN and RPCY cannot be ordered by “one-hybrid fitness for binding NBS DNA” value: ≤ 0.2 for the first, ≤ 0.2 for the second.

SKVL and AKKC cannot be ordered by “one-hybrid fitness for binding NBS DNA” value: ≤ 0.2 for the first, ≤ 0.2 for the second.

ARTC and TSFC cannot be ordered by “one-hybrid fitness for binding NBS DNA” value: ≤ 0.2 for the first, ≤ 0.2 for the second.

RPGV and SICG cannot be ordered by “one-hybrid fitness for binding NBS DNA” value: ≤ 0.2 for the first, ≤ 0.2 for the second.

Compared with IEIS, QRRA is higher in “one-hybrid fitness for binding NBS DNA” value: ≤ 0.2 for the first, 0.674 for the second.

With DMFG the “one-hybrid fitness for binding NBS DNA” value was ≤ 0.2.
